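Protocol summary: plate cells (96-well), add compound at 5 concentrations, incubate 48 h, interpolate endpoints linearly. GI50 marks 50% less growth. TGI: total growth inhibition.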 Peptide text beside a SMILES is read from it.
Test system: NCI-H322M lung
Assay: DTP human tumour cell line panel, 48 h

SMILES	TGI [µM]	GI50 [µM]
O=C(CCCN1CCC2(CC1)OC(=O)N(c1ccccc1)C2=O)c1ccccc1	> 100	–
Cc1ccc(C(=O)c2nnc(C(=O)c3ccc(C)cc3)nn2)cc1	> 100	–
COc1ccc(-c2nc3sc4c(c3c(=O)[nH]2)CCCCCC4)cc1	> 33.2	> 33.2
CSc1ncc2c(C#N)c3sc4ccccc4n3c(=O)c2n1	> 100	–
OC(c1cc(-c2ccccc2)nc2ccc(Cl)cc12)C1CCCCN1 (stereo not given)	6.04	2.31
COc1ccc(/C=C(/C#N)C(N)=O)cc1OC	> 100	–
CCN(CC)CCC(=O)c1ccc(Oc2ccc(Cl)cc2)cc1	31.5	–
CCOC(=O)c1ccc(N=C2C(=S)N(c3ccc(C(=O)OCC)cc3)C(=N)N2/N=C/c2ccccc2)cc1	> 100	–
O=C(CSc1nnc(-c2ccc(N=Cc3ccc(Cl)cc3)cc2)o1)Nc1ccc(Cl)cc1Cl	85.2	–
CC1=Nc2ccccc2S/C1=C(/C)NNC(=O)C(N)=O	> 100	–
Cc1nc(N)nc(N)c1-c1ccc(Cl)c(Cl)c1	> 100	–
CC(C)(Br)C(Br)CCC(C)(Br)C(Br)CO (stereo not given)	> 10	–
CC1CNc2ccccc2N=C1NN (stereo not given)	> 100	–
COc1cc(Cn2c3ccccc3c3cc(C)c4c(c32)C=CC(C)(CCC=C(C)C)O4)cc2c1[nH]c1ccccc12 (stereo not given)	> 100	–
COc1ccc(OCc2nc3cc(C(F)(F)F)ccc3nc2-c2ccccc2)cc1	> 100	–
Cn1cccc1-c1cc(-c2cccs2)nc(N)c1C#N	> 100	> 100
CCOC(=O)C1(C(=O)OCC)Nc2cccnc2N(C)N1	> 100	–
CC(=O)OCC1OC(SC2=N/C(=C\c3cc4c(=O)c5ccccc5sc4s3)C(=O)N2c2ccccc2)C(OC(C)=O)C(OC(C)=O)C1OC(C)=O (stereo not given)	> 100	–
CC1C=C(OC(=O)c2ccccc2)C(=O)C(n2cc(F)c(=O)[nH]c2=O)O1 (stereo not given)	> 100	–
Cc1ccc(-c2cn3ccnc3c(-c3ccc(Cl)cc3)n2)cc1	> 79.3	2.26
COc1ccc(-c2c3c(N)nc(-c4ccncc4)nc3nc3c2c(C)nn3-c2ccccc2)cc1	> 100	81.4
C/C(=N\NS(=O)(=O)c1ccccc1)c1ccc(Cl)c(Cl)c1	> 100	–
COc1cc(OC(C)=O)cc2c(OC(C)=O)ccc(OC(C)=O)c12	> 100	–
COc1ccc(-c2csc(N(C(=O)N3CCN(c4cc5c(cc4F)c(=O)c(C(=O)O)cn5C4CC4)CC3)c3ccccc3)n2)cc1	14.9	2.77

SMILES	TGI [µM]	GI50 [µM]
O=c1c2nn3c(=O)n(-c4ccccc4)c(=O)c3nn2c(=O)n1-c1ccccc1	> 100	–
CCOP(=O)(OCC)C1CC(O)C(=O)N1 (stereo not given)	> 100	–
CC(=O)N1C(Nc2ccccn2)CCN1c1ccccc1 (stereo not given)	> 10	–
COC(=O)C(=O)C1(CCC(C)=O)c2ccccc2-c2c(C)ccc(C)c21 (stereo not given)	> 100	–
O=C(/C=C/c1csc(-c2ccccc2)n1)NCc1ccc(C(=O)NCCc2ccccc2)cc1	> 100	–
N#C/C(=C\c1ccc(O)c(O)c1)C(N)=S	> 100	–
CCCC1(NC(=O)C(F)(F)F)CC(OC)OC2COC(c3ccccc3)OC21 (stereo not given)	> 100	–
CC1=C(C)C(=O)c2c(cc3ccccn23)C1=O	52	–
CN1CCC(n2cnc(-c3ccc(F)cc3)c2-c2ccnc(NCCO)n2)CC1	> 25	> 25
O=C(N/C(=C\c1ccc2c(c1)OCO2)c1nc2ccccc2[nH]1)c1ccccc1	> 100	–
COc1ccc(/C=C2\CCCC3=C2N=C2SC(C)=NN2C3c2ccc(OC)c(OC)c2)cc1OC (stereo not given)	> 100	45.1
O=C1/C(=C\c2c[nH]c3ccccc23)c2ccccc2N1c1c(Cl)cccc1Cl	6.01	2.01
CCCCC(CC)CN=C(N)NC(N)=NCCCCCCN=C(N)NC(N)=NCC(CC)CCCC (stereo not given)	9.64	3.11
CC1=C(Oc2ccccc2)C(CCC(=O)O)c2c(O)cc(Cl)c(O)c21 (stereo not given)	> 100	–
CCOC(CN=C=S)OCC	> 10	–
Cc1ccc(N=Cc2ccc3c(c2)OCO3)cc1C	> 100	–
CC(=O)N1C(=O)/C(=C\C(=O)c2ccc([N+](=O)[O-])cc2)c2ccccc21	> 100	–
CN(CC1(CO)CCC1)c1cc(Cl)nc(N)n1	> 100	–
CN(C)CCCNC(=O)CCNC(=O)c1cc(NC(=O)c2cc(NC(=O)c3cc(NC(=O)c4nc(NC(=O)CCCNC(=O)c5cc(NC(=O)c6cc(NC(=O)c7cc(NC(=O)c8nccn8C)cn7C)cn6C)cn5C)cn4C)cn3C)cn2C)cn1C	> 100	–
C1C[OH+]CC[OH+]CCNCC[OH+]CC[OH+]CCN1.N.[Cl-].[Pt+4]	69.8	20.4
CCCC(C)c1cc(Cc2cc(Cl)cc(Cl)c2O)c(O)c(Cc2cc(Cl)cc(Cl)c2O)c1 (stereo not given)	11.8	2.87
CN(C)CCNc1c2c(c(NCCN(C)C)c3[nH]ccc13)C(=O)c1ccccc1C2=O	3.15	0.67
CC#CC#C/C=C1/O[C@]2(CCC(OC(C)=O)CO2)[C@@H]2O[C@H]12 (stereo not given in full)	> 100	–
N#Cc1c(N2CCCC2)[nH]c(=O)c(C(c2c(Cl)cccc2Cl)c2c(O)c(C#N)c(N3CCCC3)[nH]c2=O)c1O	44.6	26.3

SMILES	TGI [µM]	GI50 [µM]
COc1ccc(/C=C2\NC(=S)N(CN3CCCCC3)C2=O)cc1	> 100	–
Cc1ccccc1[P+](Cc1ccccc1)(c1ccccc1)c1ccccc1	59	4.09
CC1(C)CC(=O)c2c(C(F)(F)F)nn(-c3ccc(C(N)=O)c(NC4CCC(OC(=O)CN)CC4)c3)c2C1 (stereo not given)	> 100	25.8
COc1cc2c(c(OC)c1)C1c3ccccc3NC(=O)N1CC2 (stereo not given)	> 100	7.13
Cc1c(C(=O)C/C(=N\O)C(=O)Nc2cc(Cl)c(Cl)cc2Cl)[n+](=O)c2ccccc2n1[O-]	98.3	–
CC(=O)OCC1OC(OC2C(CSC3OC(COC(C)=O)C(OC(C)=O)C(OC(C)=O)C3OC(C)=O)OC(OC(C)=O)C(OC(C)=O)C2OC(C)=O)C(OC(C)=O)C(OC(C)=O)C1OC(C)=O (stereo not given)	> 100	–
NCCOCCOCCNc1nc(Cc2ccccc2)nc(NCCCN2CCCC2=O)n1	> 100	> 100
O=C(/C=C/c1ccccc1)CCN1CCN(CCC(=O)/C=C/c2ccccc2)CC1	62.5	–
CCNCCNc1c2ccccc2nc2ccccc12	4.98	–
O=C1[C@H]2ON(c3ccccc3)C(c3ccccc3Cl)[C@H]2C(=O)N1c1ccc(Cc2ccc(N3C(=O)[C@@H]4ON(c5ccccc5)C(c5ccccc5Cl)[C@@H]4C3=O)cc2)cc1 (stereo not given in full)	> 100	–
CCC1C(C#N)=C(N)OC2=C1C(=O)CC(C)(C)C2 (stereo not given)	> 100	–
COc1cc(C2CC(c3ccc4c(c3)OCO4)=NN2C=O)cc(OC)c1OC (stereo not given)	> 100	4.86
CS(=O)(=O)N1CC(CCl)c2ccc([N+](=O)[O-])cc21 (stereo not given)	> 100	–
N=c1oc2cc(O)ccc2cc1C(=O)NCc1ccccc1	> 100	–
CC(=O)OCOC(=O)CN(CC(=O)OCOC(C)=O)Cc1cc2c(cc1OC(C)=O)Oc1cc(OC(C)=O)c(CN(CC(=O)OCOC(C)=O)CC(=O)OCOC(C)=O)cc1C21OC(=O)c2ccccc21	8.91	–
C[n+]1c2ccccc2c(C(=O)Nc2ccc(S(=O)(=O)Nc3ccnn3-c3ccccc3)cc2)c2ccccc21	> 100	–
CCCCCC(=O)N[C@H](C(=O)N[C@H](C(=O)N(C)[C@H](C(=O)N1CCC[C@H]1C(=O)N1CCC[C@H]1C(=O)O[C@H](C(=O)N1C(=O)C=C(OC)[C@@H]1Cc1ccccc1)C(C)C)C(C)C)C(C)C)C(C)C (HELM PEPTIDE1{[CCCCCC(=O)[*:2]].V.V.[meV].P.P.[COC1=CC(=O)N(C(=O)[C@@H](O[*:1])C(C)C)[C@H]1Cc1ccccc1]}$$$$V2.0)	> 100	–
O=C1CC(c2ccc(O)cc2)C2(O1)C(=O)OC(C(O)CO)C2O (stereo not given)	> 100	–
CN(C)C(=O)OC(Cn1cncn1)c1ccc(Cl)cc1Cl (stereo not given)	> 100	–
CCN(CC)CCCNc1nc(=O)[nH]c(C)c1C(=O)Nc1cccc2cc3ccccc3cc12	> 100	–
O=C1c2ccccc2S(=O)(=O)c2c1cccc2[N+](=O)[O-]	> 8.59	–
COc1ccc(/C(=C2/O[C@@H]([C@H]3COC(C)(C)O3)[C@H]3OC(C)(C)O[C@@H]23)c2cc(OC)c(OC)c(OC)c2)cc1O	> 100	9.6
Cc1c(/C=N/NC(=O)c2cc(Br)cc(Br)c2O)c(=O)n(-c2ccccc2)n1C	> 100	–
NC1CC(=O)c2sc(I)cc21 (stereo not given)	> 100	–

SMILES	TGI [µM]	GI50 [µM]
CC(=O)CCCCC(=O)Nc1ccc(CC(NC(=O)OC(C)(C)C)C(=O)NCC(=O)OCc2ccccc2)cc1 (stereo not given)	78.3	–
COC(O)C(=O)c1c2c(cc3c1CC1(Cc4cc5c(cc4C1)CCC5)C3)CCC2 (stereo not given)	28.5	–
COC(=O)[C@@]1(C)CC[C@]2(C)CC[C@]3(C)C4=CC=C5C(=CC(=O)C(O)=C5C)[C@]4(C)[C@@H](O)C[C@@]3(C)[C@@H]2C1	25.1	13.1
Oc1cccc2ccc(N/N=C/c3cc(CN4CCCCC4)c(O)c4ncccc34)nc12	4.41	0.467
Cc1[nH]ccc2c1[nH]c1cc(=O)ccc12	> 100	–
CC(C)[C@H]1CO[C@]2(C)[C@@H]3CN(Cc4ccccc4)C[C@@H]3C(=O)N12	> 100	–
CC1OC(O[C@@H]2OC=C(C=O)[C@@]3(O)CC[C@H](C)[C@@H]23)C(O)C(O)C1O (stereo not given in full)	> 100	–
CCN(CC)CC(C)Nc1ccc([N+](=O)[O-])c2sc3ccccc3c(=O)c12 (stereo not given)	8.62	1.84
CCCCCCCCCCCCCCCCN1CC2CCCCC2C1 (stereo not given)	37.7	21.8
N=C(N)c1ccc(-c2ccc(-c3cc(Cl)cc(Cl)c3)o2)nc1	3.36	1.74
CCN(CC)CSc1nc2ccccc2s1	> 100	–
COc1ccc(-c2n/c(=C\c3c(O)[nH]c4ccc(OC)cc34)cc3c2=Nc2ccccc2-3)cc1	> 100	4.11
CCC1NC(=O)C1NC(=O)OC (stereo not given)	> 100	–
O=C1C(Br)=CC2(C=C1Br)CCNC1=C2C(=O)c2ccccc2C1=O	> 100	–
COc1ccc2nc(-n3c(/C=C/c4ccccc4O)nc4ccccc4c3=O)sc2c1	> 100	–
COC(=O)C1=CC2CCCC1(O)C(C(C)=O)C2 (stereo not given)	> 100	–
O=C(Cc1ccccc1)NNc1nc(NNC(=O)c2ccncc2)nc(Nc2ccc([N+](=O)[O-])cc2)n1	> 10	–
CC(CCC(=O)O)[C@H]1CCC2[C@@H]3CC[C@@H]4CC(O)CC[C@]4(C)C3CC[C@@]21C (stereo not given in full)	> 100	58.8
COc1cc(C2C(C(=O)O)=C(CO)Oc3cc4c(cc32)OCO4)cc(OC)c1O (stereo not given)	> 100	–
N=c1c2c(C(N)=O)cn(C3OC(CO)C(O)C3O)c2ncn1O (stereo not given)	0.933	–
COC(=O)c1ccccc1CC1Cc2ccc3c(c2C1=O)CCC3 (stereo not given)	> 100	–

— PubChem BioAssay (NCI)
